Among all 43,000 compounds or so, about 200 (0.47%) were called active. About 12% were inconclusive and are not listed. The call rests on the fitted dose curve; in most records, active means well fitted cell-killing curve with a large enough effect; inconclusive means small, poorly fitted or top-dose-only effect, or effect the other way; inactive means flat fitted curve, though single readings scatter. The list shows a part of the results.
Assay: Cell viability qHTS assay in S16 Pmp22-F2sN cells; further: nearly all actives have a fitted effect of over 65% in size
Details: S16 Pmp22-F2sN Schwann cells (luciferase reporters placed in the Pmp22 gene) viability, CellTiter-Glo, 24 h; series mostly up to 57.5 µM; activity change, negative = cytotoxicity: at the top concentration
Outline: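 Rat S16 Schwann reporter line, 24 h treatment with library compounds delivered at 23 nL per well. Cell viability by CellTiter-Glo luminescence.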
On the % scale 0 is the no-effect control and ±100 the full control effect; potency means the concentration at half of the fitted maximal effect.

Compound | activity change, negative = cytotoxicity | Potency
Cc1ccc(C)c(NC(=O)CCn2nc(C)c3c(C)n(-c4ccccc4)nc3c2=O)c1 | inactive: -4.81% | –
Cc1nc(-c2ccc(Cl)cc2)sc1CCNC(=O)c1ccc(C(F)(F)F)cc1 | inactive: -0.0458% | –
COc1ccccc1C(=O)OCc1cc(=O)n2nc(C3CC3)sc2n1 | inactive: 14.6% | –
CCC1CCc2nc3sc(C(=O)Nc4ccc(F)c(Cl)c4)c(N)c3cc2C1 (centres undefined) | inactive: 3.5% | –
Cc1ccc(C)c(NC(=O)c2ccc3c(c2)CCN3S(C)(=O)=O)c1 | inactive: 7.23% | –
Cc1cccc(-c2nn3c(=O)cc(CN4CCN(S(=O)(=O)c5ccc(Cl)cc5)CC4)nc3s2)c1 | inactive: -13.8% | –
CCc1cc2c(cc3c(=O)n(CC(=O)NCCc4ccc(OC)c(OC)c4)ncn32)s1 | inactive: -4.06% | –
COC(=O)c1cc(S(=O)(=O)NCC2CCN(Cc3cccc(F)c3)CC2)c[nH]1 | inactive: -10.8% | –
Cc1ccccc1Cn1c(=O)n(CCc2ccccc2)c(=O)c2c(C)c(C)sc21 | inactive: 0.106% | –
COc1cccc(OCCSc2nc3ccccc3n2CC(=O)N2CCCCC2)c1 | inactive: 2.25% | –
COc1ccc(-c2nc(CN3CCC(C(=O)NCCCOC(C)C)CC3)c(C)o2)cc1OC | inactive: 15.7% | –
COc1cccc(-n2cc(C(=O)NCc3ccccc3OC)c3ccccc3c2=O)c1 | inactive: 14.5% | –
COc1ccc(NC(=O)Cn2c(=O)n(Cc3nc(C)no3)c(=O)c3cc4c(cc32)OCO4)cc1OC | inactive: 2.33% | –
Cc1cccc(C)c1-n1ncc(C(=O)NCCN2CCOCC2)c1C1CCN(C(=O)OC(C)(C)C)CC1 | inactive: -2.46% | –
O=C(CCn1ccc2cc(S(=O)(=O)N3CCCC3)ccc21)NCc1cccc(F)c1 | inactive: -24.6% | –
COC(=O)CSc1nc(-c2ccc(F)cc2)cc(C(F)(F)F)n1 | inactive: -12.5% | –
COc1cc(OC)c(C2Nc3ccccc3-c3nnc(SCc4ccccc4)nc3O2)cc1OC (centres undefined) | inactive: 6.62% | –
COc1ccc(OC)c(C2N=C(N)Nc3nc4ccccc4n32)c1 (centres undefined) | inactive: 8.03% | –
O=C(NCc1ccc(Cl)cc1)C1CCCN(C(=O)c2cnn(-c3ccc(F)cc3)c2-n2cccc2)C1 (centres undefined) | inactive: -21.1% | –
Cc1ccc(C)c(Nc2cc(C(=O)NC3CCCCC3)c3ccccc3n2)c1 | inactive: 13.9% | –
O=C(CCn1c(=O)c2cccn2c2ccc(F)cc21)NCCc1ccccc1 | inactive: -3.57% | –
Cc1ccc(N(C(=O)COc2ccccc2C)S(=O)(=O)c2ccc(Cl)cc2)cc1 | inactive: -7.71% | –
Cc1cc(C)c2oc(C(=O)Nc3sc4c(c3C(=O)NCc3ccco3)CCCC4)cc(=O)c2c1 | inactive: 4.86% | –
CCc1cccc(NC(=O)CCc2c(C)nc3c(c2C)c(=O)n(C)c(=O)n3C)c1 | inactive: 8.76% | –

Compound | activity change, negative = cytotoxicity | Potency
Cc1ccc(CNC(=O)CCSCc2ccccc2F)cc1 | inactive: -0.334% | –
O=C(NCc1cccnc1)c1nn(-c2ccccc2F)nc1CO | inactive: 1.19% | –
COc1ccccc1NC(=O)Cn1c(=O)n(-c2ccc(C)cc2)c(=O)c2ccc(C(=O)NCc3ccco3)cc21 | inactive: 4.8% | –
CCOCCCNC(=O)c1ccc(NC(=O)N2CCCCc3ccccc32)cc1 | inactive: -18.6% | –
Cc1c(NC(=O)c2ccc(Cl)cc2)cc(C(C)C)c(O)c1S(=O)(=O)c1ccc(Cl)cc1 | inactive: -9% | –
COc1ccccc1N1CCN(c2ccc(=O)n(CC(=O)Nc3ccc(F)c(F)c3)n2)CC1 | inactive: 1.1% | –
Cc1ccc(NC(=O)c2cccc(N3CCCS3(=O)=O)c2)cc1 | inactive: 18.9% | –
COc1ccc(NC(=O)C2=C(C)Nc3nc(CCCO)nn3C2c2ccc(O)cc2)cc1 (centres undefined) | inactive: 5.75% | –
Cc1ccc(C)c(S(=O)(=O)c2nnn3c2nc(N2CCOCC2)c2sccc23)c1 | inactive: 3.23% | –
COCCCNC(=O)C(=O)NCC(c1ccc2c(c1)OCO2)N1CCOCC1 (centres undefined) | inactive: -1.69% | –
CCN1C(=O)c2ccccc2S(=O)c2ccc(C(=O)NCc3ccc(F)cc3)cc21 (centres undefined) | inactive: 4.41% | –
CCOc1ccc(C(c2c(O)cc(C)n(CCOC)c2=O)N2CCN(c3ccccc3F)CC2)cc1 (centres undefined) | inactive: 9.06% | –
CC(C)N(Cc1ccccc1)c1ncnc2c1nnn2C | inactive: -4.31% | –
CCOC(=O)c1cc(-c2ccc(OC)c(S(=O)(=O)Nc3ccc(OC)cc3OC)c2)on1 | inactive: -6.54% | –
Cc1ccc(CNC(=O)c2nnc(Cc3cccc(F)c3)o2)cc1 | inactive: -5.24% | –
COc1ccccc1-c1nnc(SCCOc2ccccc2C)o1 | inactive: 16.6% | –
CC(C)c1ccc(S(=O)(=O)c2cnc(SCC(=O)Nc3cccc(C(F)(F)F)c3)nc2N)cc1 | inactive: 20.4% | –
CCc1cccc(CC)c1NS(=O)(=O)c1ccc2c(c1)CCN2C(=O)C1CC1 | inactive: 5.66% | –
COc1ccc(N2CC(C(=O)Nc3ccc(NC(C)=O)cc3)CC2=O)cc1 (centres undefined) | inactive: 8.5% | –
COC(=O)c1sccc1S(=O)(=O)N1CCN(c2ccccc2OC)CC1 | inactive: -1.31% | –
O=C(c1ccc2c(c1)N(Cc1ccc(F)cc1)C(=O)c1ccccc1S2=O)N1CCOCC1 (centres undefined) | inactive: 1.41% | –
CCN(c1ccccc1)S(=O)(=O)c1ccc(NC(=O)c2cc(=O)c3cc(C)ccc3o2)cc1 | inactive: -0.517% | –
COc1cc(C(=O)Nc2nc3c(s2)Cc2c(Br)ccc(OC)c2-3)cc(OC)c1OC | – | active: 25.1 µM
CCC(Sc1nc2ccccc2c2nc(CCc3c(C)n[nH]c3C)nn12)C(=O)Nc1ccc(OC)cc1 (centres undefined) | inactive: 3.26% | –

Compound | activity change, negative = cytotoxicity | Potency
O=C(Nc1nnc(N2CCCCCC2)s1)Nc1ccccc1C(F)(F)F | inactive: 0.247% | –
O=C(OCC1CCCO1)c1ccc2c(c1)N(Cc1cccc(Cl)c1)C(=O)c1ccccc1S2(=O)=O (centres undefined) | inactive: -1.29% | –
Cc1ccc(NC(=O)NCCOCCn2c(=O)oc3ccccc32)cc1F | inactive: 9.62% | –
COC(=O)c1c(C)sc(-c2c(-c3ccc4c(c3)OCCO4)[nH]c3[nH]c(=O)[nH]c(=O)c23)c1O | inactive: -9.27% | –
CCOc1ccc(-c2cc3nc(C4CCN(C(=O)OC(C)(C)C)CC4)c(C(=O)Nc4ccc(C)cc4Cl)cn3n2)cc1 | inactive: 7.5% | –
O=S(=O)(c1ccc(Br)cc1)c1nnn2c1nc(Nc1cccc(C(F)(F)F)c1)c1sccc12 | inactive: -5.23% | –
CN1CCSc2ccc(C(=O)NCc3ccccc3F)cc21 | inactive: -15.8% | –
Cc1cc(C)c2c(n1)nn1c(C)c(CCC(=O)NCc3ccccc3Cl)c(C)nc21 | inactive: 2.75% | –
COc1ccccc1CCNC(=O)Cc1c(C)c2cc3c(C(C)(C)C)coc3c(C)c2oc1=O | inactive: 1.39% | –
COc1ccc(CCNC(=O)c2ccc(-n3c(C)cc4c3CCCC4)cc2)cc1OC | inactive: -25.4% | –
CCCc1cc(=O)[nH]c(SCc2nc(-c3ccc(C)cc3)no2)n1 | inactive: 0.493% | –
Cc1cccc(NC(=O)Cn2cnc(S(=O)(=O)N3CCCC3)c2)c1C | inactive: 1.24% | –
CCCSc1ncc(Cl)c(C(=O)Nc2c(C(=O)Nc3ccccc3)oc3ccccc23)n1 | inactive: -9.21% | –
COc1ccc(N2CCN(S(=O)(=O)CCNC(=O)COc3cccc(OC)c3)CC2)cc1 | inactive: 2.46% | –
CCN(C(=O)CCNC(=O)Cn1cnc2ccccc2c1=O)c1cccc(Cl)c1 | inactive: 21.9% | –
COc1cccc(NC(=O)C(=O)NCCc2csc(-c3ccc(C)cc3)n2)c1 | inactive: 2.28% | –
CCCn1cc(S(=O)(=O)c2ccc(C)cc2)c(=O)c2cc(OC)c(OC)cc21 | inactive: -17.6% | –
COc1ccc(C2=C(C)C(N3CCC(C(=O)Nc4cc(C)ccc4C)CC3)=NS2(=O)=O)cc1 | inactive: 3.89% | –
CSc1ncc(C(=O)NCc2ccc(Cl)cc2)c(C(F)(F)F)n1 | inactive: -0.961% | –
CCn1c(CN2CCCCC2)nc2cc(NC(=O)c3ccccc3[N+](=O)[O-])ccc21 | inactive: -7.34% | –
CCOC(=O)CSc1nc(-c2ccccc2)cc(C(F)(F)F)c1C#N | inactive: 20.7% | –
Cc1nn(-c2ccccc2)c(OC(=O)c2ccc(F)cc2)c1S(=O)(=O)c1ccccc1 | inactive: 13.2% | –
COc1cccc(N2CCN(C(=O)c3cc4c(=O)n(Cc5cccs5)ccc4nc3C)CC2)c1 | inactive: 5.73% | –
Cc1ccc(CNC(=O)Cn2ncc3c([nH]c4ccc(C)cc43)c2=O)cc1 | inactive: 7.93% | –

Compound | activity change, negative = cytotoxicity | Potency
COC(=O)c1ccc(Cl)cc1NC(=O)NCc1c(-n2cccc2)sc2c1CCCC2 | inactive: -4.7% | –
O=C(Nc1cccc2cccnc12)c1cccc2ccccc12 | inactive: 1.69% | –
CCOC(=O)c1ccc(NC(=O)c2csc3c2CCCC3)cc1 | inactive: 22.6% | –
CCOc1ccc(C(=O)Nc2ccc(C(=O)OCc3cc(=O)n4ccsc4n3)cc2)cc1 | inactive: 22.6% | –
CCCCC(=O)Nc1cc2nn(-c3ccc(OCC)cc3)nc2cc1C | inactive: 4.25% | –
Cc1cccc(C)c1Nc1c(-c2cccs2)nc2ncccn12 | inactive: 11.1% | –
Cn1c(=O)c2c(SCC(=O)NCC3CCCO3)nc(-c3cccc(F)c3)nc2n(C)c1=O (centres undefined) | inactive: 1.42% | –
Cc1cccc(OCCSc2nc3ccc(NC(=O)c4cccs4)cc3s2)c1 | inactive: 7.67% | –
Cc1ccc(OCC(=O)Nc2cc(-c3nc4ccccc4[nH]3)ccc2C)c(C)c1 | inactive: 9.77% | –
Cc1cccc(Cn2cc(S(=O)(=O)c3ccc(Cl)cc3)c(=O)c3cc4c(cc32)OCO4)c1 | inactive: -4.81% | –
CC(=O)c1ccc(NC(=O)c2ccc(NC(=O)CCS(=O)(=O)c3cccs3)cc2)cc1 | inactive: 15.2% | –
O=C(Nc1ccc2nc(SCC(=O)N3CCCC3)sc2c1)c1ccc(Br)cc1 | inactive: 1.9% | –
Cc1cccc(OCC(=O)OCc2cc(=O)n3nc(-c4cccs4)sc3n2)c1 | inactive: -14.5% | –
O=C(C1CC1)N1CCc2cc(Br)cc(S(=O)(=O)N3CCN(c4cccc(Cl)c4)CC3)c21 | inactive: -3.88% | –
Cc1ccc2nc(COc3cccc(NC(=O)COc4ccccc4F)c3)cc(=O)n2c1 | inactive: 11.2% | –
CCOC(=O)c1cc(-c2ccccc2)n(-c2cccc(C(=O)Nc3cccc(C)c3)c2)c1C | inactive: -4.56% | –
COC(=O)c1ccccc1NC(=O)Cn1c(=O)nc(-c2ccccc2)c2cc(Cl)ccc21 | inactive: 5.26% | –
CCc1nn(Cc2cccc(F)c2)c(=O)c2cc3cc(C)ccc3n12 | inactive: -16.1% | –
Cc1ccc(-n2ncc(C(=O)N3CCN(c4ccccn4)CC3)c2C2CCN(C(=O)OC(C)(C)C)CC2)cc1 | inactive: 13.3% | –
CCC(C)NC(=O)Cn1c(=O)n(-c2ccc(Cl)c(Cl)c2)c(=O)c2c(C)c(C(=O)N(CC)CC)sc21 (centres undefined) | inactive: -2.76% | –
O=S(=O)(c1ccccc1)c1nc(-c2cccs2)oc1SCc1ccccc1Cl | inactive: 2.29% | –
CCOc1ccccc1NC(=O)CSc1nc2c([nH]c3ccccc32)c(=O)n1-c1ccccc1 | inactive: 5.9% | –

— PubChem BioAssay AID1508642 (National Center for Advancing Translational Sciences (NCATS), 2021)
